# PubChem BioAssay AID1508642 (National Center for Advancing Translational Sciences (NCATS), 2021)
# The campaign covered roughly 43,000 compounds. About 200 (0.47%) were called active. Roughly 12% stayed inconclusive and do not appear here. Calls follow the shape of the dose curve; as a rule, active = well fitted cell-killing curve with a large enough effect; inconclusive = small, poorly fitted or top-dose-only effect, or effect the other way; inactive = flat fitted curve, though single readings scatter. This is one part of the list.
# Assay: Cell viability qHTS assay in S16 Pmp22-F2sN cells; also: nearly all actives have a fitted effect of over 65% in size
# Settings: S16 Pmp22-F2sN Schwann cells (luciferase reporters placed in the Pmp22 gene) viability, CellTiter-Glo, 24 h; series mostly up to 57.5 µM; activity change, negative = cytotoxicity: at the top concentration
# Procedure, shortened: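 CellTiter-Glo counter-screen, qHTS, 1536-well. Cells: S16(c9) Pmp22-F2sN, 500-1,000/well in DMEM + 10% FBS. Cpd 23 nL pin transfer, 24 h, 37C/5% CO2. Read: luminescence, CCD imager.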
# % is scaled to controls: 0 for no effect and ±100 for the full control effect.
row,Structure (SMILES),"activity change, negative = cytotoxicity"
1,Cc1cccc(C(=O)n2nc(C)c(S(=O)(=O)N3CCOCC3)c2C)c1,inactive: -1.88%
2,CCCCC(=O)N1CCc2cc(OC)c(OC)cc2C1COc1ccc(C(=O)OCC)cc1 (stereo not drawn),inactive: -19.9%
3,CCOc1ccc(Sc2cc(C(=O)NCc3ccc(C)cc3)c3ccccc3n2)cc1,inactive: -6.71%
4,COCCCn1c(=N)c(C(=O)NC2CCCC2)cc2c(=O)n3cccc(C)c3nc21,inactive: 8.41%
5,CCOc1ccccc1NS(=O)(=O)c1cc2[nH]c(=O)c(=O)[nH]c2cc1C,inactive: 6.77%
6,COc1ccc(Cn2ccc3nc(C)c(C(=O)Nc4cc(OC)c(OC)c(OC)c4)cc3c2=O)cc1,inactive: -3.47%
7,CCOC(=O)c1cc(-c2ccc(C)cc2)n(CCCC(=O)Nc2cc(C)ccc2C)c1,inactive: -15.6%
8,CCOc1ccc(C(=O)Nc2ccc3oc(-c4ccc(C)cc4C)nc3c2)cc1Br,inactive: 5.99%
9,CCOc1ccc(NC(=O)Cn2c(=O)n(CCCCC(=O)NCCc3ccc(Cl)cc3)c(=O)c3ccccc32)cc1,inactive: 19.9%
10,CCc1ccccc1NC(=O)CC1NCCNC1=O (stereo not drawn),inactive: -0.548%
11,O=C(C1CCC(CNS(=O)(=O)c2ccc(Br)s2)CC1)N1CCN(c2ccc(F)cc2)CC1 (stereo not drawn),inactive: -5.65%
12,O=C(Nc1cccc(Cl)c1)N1CC2CCCN2c2ccccc21 (stereo not drawn),inactive: -20%
13,COc1ccc(-c2nc3n(n2)C(c2ccccc2OC)C(C(=O)Nc2cccnc2)=C(C)N3)cc1 (stereo not drawn),inactive: -11.3%
14,CCOc1ccccc1NC(=O)c1c2c(nc3ccccc13)C(=O)N(C1CCCCC1)C2,inactive: 0.485%
15,CCOc1ccc(-n2c(SCC(=O)NCc3ccccc3)nc3n[nH]c(C)c3c2=N)cc1,inactive: -9.12%
16,CCOC(=O)N1CCc2c(sc(NCc3ccc(N(CC)CC)cc3)c2C(=O)Nc2cc(OC)ccc2OC)C1,inactive: -19.6%
17,Cc1ccc(-n2c(=O)c3ccc(C(=O)NCc4ccco4)cc3n(CC(=O)Nc3ccc(C)c(F)c3)c2=O)cc1,inactive: -2.39%
18,Cc1ccc(NS(=O)(=O)c2ccc3c(c2)N(C)C(=O)CC(=O)N3C)cc1Cl,inactive: -10.3%
19,COc1ccc(CNC(=O)c2ccc3c(c2)nc2n3CCCCC2)cc1,inactive: 2.94%
20,CCC1CN(C(=O)N2CCC(C(=O)N3CCN(c4ccccc4)CC3)CC2)c2ccccc2O1 (stereo not drawn),inactive: -1.49%
21,COc1cccc(C(=O)N2CCCCC2CCN2CCCCC2)c1 (stereo not drawn),inactive: 8.76%
22,CCc1ccc(-n2nc(CO)c(C(=O)NCCc3ccccc3)n2)cc1,inactive: -3.26%
23,O=C(CSc1nc2c([nH]c3ccccc32)c(=O)n1-c1ccc(F)cc1)N1CCc2ccccc21,inactive: 0.451%
24,Cc1cc(C)cc(-n2c(SCC(=O)N3CCC(C)CC3)nc3c([nH]c4ccccc43)c2=O)c1,inactive: 1.93%

row,Structure (SMILES),"activity change, negative = cytotoxicity"
1,Cc1ccc(C)c(N2CCN(C(=O)Cc3c(C(=O)O)c(C)cn3C)CC2)c1,inactive: -3.27%
2,COc1ccc(OC)c(NC(=O)c2cccc3c2C(=O)N(C2CCCCC2)C3)c1,inactive: -24.8%
3,Cc1cccc(Cn2c(CNS(=O)(=O)c3ccc(C(C)C)cc3)nc3cccnc32)c1,inactive: 16.3%
4,Cc1oc(-c2ccccc2F)nc1CS(=O)CC(=O)NC(C)C (stereo not drawn),inactive: 6.77%
5,CCOc1ccc(CCNC(=O)c2nnc(Cc3ccc(Cl)cc3Cl)o2)cc1OCC,inactive: 9.89%
6,COc1cc(OC)c(N(C)C(=O)c2c(C)oc3ncnc(N4CCCCC4)c23)cc1Cl,inactive: -3.16%
7,O=S(=O)(c1ccc(F)cc1)N(CC(O)Cn1c2ccccc2c2ccccc21)c1ccccc1 (stereo not drawn),inactive: 1.75%
8,COc1ccc(C(=O)NCC(c2ccc3c(c2)OCO3)N2CCN(C)CC2)cc1 (stereo not drawn),inactive: 4.52%
9,COc1ccc(NC(C)=O)cc1NC(=O)C1(c2cccs2)CCOCC1,inactive: 1.7%
10,CCOC(=O)c1cc2c(=O)n3ccccc3nc2n(CC2CCCO2)c1=NC(=O)c1ccccc1C (stereo not drawn),inactive: 3.69%
11,CCn1cc(/C=C(\NC(=O)c2ccc(C)cc2)C(=O)NCCCn2ccnc2)c2ccccc21,inactive: 14.5%
12,CCOc1ccc2nc(N3CCN(C(=O)c4ccco4)CC3)sc2c1,inactive: -16.9%
13,CC(=O)c1ccc(NC(=O)COc2ccccc2-c2nc(-c3ccc(C)cc3)no2)cc1,inactive: 2.4%
14,O=C(NC1CC(=O)N(c2cccc(F)c2)C1)c1ccc2c(c1)OCO2 (stereo not drawn),inactive: 0.36%
15,Cc1ccc(OCC(=O)Nc2ccccc2C(=O)OCc2cc(=O)n3ccsc3n2)cc1,inactive: 1.31%
16,O=C(C1CCC(Cn2c(=O)c3sccc3n(Cc3ccccc3)c2=O)CC1)N1CCOCC1 (stereo not drawn),inactive: -4.22%
17,Cc1ccc(-c2nnc(Nc3ccccc3O)c3ccccc23)cc1,inactive: -0.712%
18,Cc1ccc(Cl)cc1N1CCN(C(=O)c2cnn(C)c2C2CCN(C(=O)OC(C)(C)C)CC2)CC1,inactive: -29.7%
19,O=C(Nc1cc2c(cc1C(=O)c1ccccc1Br)OCCO2)c1ccccc1,inactive: 17.6%
20,CCc1ccc(-n2c(=O)c3sc4ccccc4c3n(CC(=O)N(CC)Cc3ccccc3)c2=O)cc1,inactive: -9.7%
21,O=C(Nc1ccc2nc(SCC(=O)N3CCc4ccccc43)sc2c1)c1ccccc1,inactive: 3.75%
22,Cc1ccc2sc(-c3ccc(N)cc3)nc2c1,inactive: -2.18%
23,CCC(=O)N1CCc2cc(CNC(=O)c3ccccc3C)ccc21,inactive: -17.3%
24,CCCCNC(=O)CSc1nc2nc(C)c(Cc3c(F)cccc3Cl)c(C)n2n1,inactive: 23.3%
